# Measurements published in PubChem BioAssay AID360 (National Center for Advancing Translational Sciences (NCATS), 2006).
# Screen size: about 48,000 compounds; about 550 (1.1%) were called active. Roughly 4% stayed inconclusive and do not appear here. No stated cut-off is given here; in the data, active means potency below about 15 µM; inconclusive means mostly about 16 µM to 33 µM; inactive means weaker than that. The list shows a part of the results.
# Biological target: Lysosomal acid glucosylceramidase (Homo sapiens) (UniProt P04062)
# Chain of UniProt P04062 (P04062 whole entry, looked up): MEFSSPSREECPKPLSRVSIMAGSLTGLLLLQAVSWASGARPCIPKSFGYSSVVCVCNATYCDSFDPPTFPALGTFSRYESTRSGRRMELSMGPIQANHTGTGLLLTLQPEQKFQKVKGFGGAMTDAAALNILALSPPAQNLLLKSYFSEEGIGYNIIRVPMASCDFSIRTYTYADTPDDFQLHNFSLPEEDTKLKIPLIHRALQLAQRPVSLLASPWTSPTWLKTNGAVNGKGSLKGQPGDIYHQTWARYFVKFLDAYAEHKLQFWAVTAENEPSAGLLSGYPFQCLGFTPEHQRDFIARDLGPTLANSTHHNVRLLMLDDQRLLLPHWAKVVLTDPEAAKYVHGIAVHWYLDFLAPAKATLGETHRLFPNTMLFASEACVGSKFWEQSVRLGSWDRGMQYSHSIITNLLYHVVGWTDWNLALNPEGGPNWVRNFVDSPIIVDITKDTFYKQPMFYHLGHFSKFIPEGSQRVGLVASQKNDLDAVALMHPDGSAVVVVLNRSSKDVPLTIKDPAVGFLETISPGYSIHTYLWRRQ
# Test: Glucocerebrosidase;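 further: the screen sought inhibitors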
# Details: purified enzyme, resorufin glucoside fluorescence (screen aimed at inhibitors), 20 min; series mostly up to 77 µM
# Method in brief: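 Compounds titrated against 0.2 nM normal enzyme, 30 uM resorufin beta-D-glucopyranoside substrate, citrate/phosphate buffer with taurocholate and tween-20, pH 5.9. Reaction ran 20 min at room temperature; fluorescence (Ex 548/Em 600) gave AC50.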
# Potency means the concentration at half of the fitted maximal effect.
row,SMILES,Potency
1,O=C(CN1C(=O)CCC1=O)Nc1ccc(S(=O)(=O)N2CCOCC2)cc1,inactive: > 76.9 µM
2,O=C(NC1CCCCC1)c1ccc(Cn2cc(Br)cn2)o1,inactive: > 76.9 µM
3,Cc1nc(SCC(=O)NCc2ccco2)c2oc3ccccc3c2n1,inactive: > 76.9 µM
4,CCOC(=O)CN(C(=O)Cn1nnc2ccccc21)C(C(=O)NCCOC)c1ccccc1C (centres undefined),inactive: > 76.9 µM
5,CCOC(=O)C1=C(C)NC(=O)C(C#N)C1c1ccncc1 (centres undefined),inactive: > 76.9 µM
6,CCC(CC)C(=O)Nc1cccc(C(=O)N2CCCC2)c1,inactive: > 76.9 µM
7,CN(C)S(=O)(=O)Nc1ccc2c(c1)OCO2,inactive: > 76.9 µM
8,COc1ccc(N2CCN(C(=O)CSc3nnc(COc4cccc5cccnc45)o3)CC2)cc1,inactive: > 76.9 µM
9,OCC1N=C(c2ccccn2)OC1c1ccccc1 (centres undefined),inactive: > 76.9 µM
10,CCOc1ccc(NC(=O)CCN2CCN(c3ccccc3OC)CC2)cc1,inactive: > 76.9 µM
11,CS(=O)(=O)c1sc2nc(-c3cccs3)cc(-c3ccccc3)c2c1N,inactive: > 76.9 µM
12,COC(=O)C1=C(N)Oc2cc(C)n(Cc3cccnc3)c(=O)c2C1c1cc(OC)ccc1OC (centres undefined),inactive: > 76.9 µM
13,Cc1noc(C)c1C(=O)Nc1ccc(Cl)cc1C(F)(F)F,inactive: > 76.9 µM
14,CC(C)=CC(=O)N1CCCc2ccccc21,inactive: > 76.9 µM
15,O=C(Nc1ccc2c(c1)OCCO2)c1ccc2nccnc2c1,inactive: > 76.9 µM
16,O=c1cc(N2CCN(Cc3ccccc3)CC2)[nH]c(=O)n1Cc1ccc(F)cc1,inactive: > 76.9 µM
17,O=C(CSc1ccccn1)N1CCN(C(=O)CSc2ccccn2)CC1,inactive: > 76.9 µM
18,Cc1csc(CCc2nc(C)cs2)n1,inactive: > 76.9 µM
19,CC1CCCCC1NC(=O)c1cn(C)c2ccc(S(=O)(=O)N3CCCC3)cc2c1=O (centres undefined),inactive: > 76.9 µM
20,Cc1ccc(S(=O)(=O)CC(=O)N2CCCCCC2)cc1,inactive: > 76.9 µM

row,SMILES,Potency
1,C=CCNC(=O)c1cc(-c2ccc(Br)cc2)on1,inactive: > 76.9 µM
2,O=C(CCSc1nc2ccccc2o1)N1CCOCC1,inactive: > 76.9 µM
3,O=C(CCc1nc(-c2ccc(Cl)cc2)no1)OCc1ccc(Br)cc1,inactive: > 76.9 µM
4,CCC(=O)Nc1cc(C(C)C)c(O)cc1C,inactive: > 76.9 µM
5,CCOC(=O)N1CCN(C(=O)Nc2ccccc2Cl)CC1,inactive: > 76.9 µM
6,NS(=O)(=O)c1ccc(CCNC(=O)CCC2COc3ccccc3O2)cc1 (centres undefined),inactive: > 76.9 µM
7,OCCCN1c2ccccc2Nc2nnc(-c3ccccc3)cc21,inactive: > 76.9 µM
8,O=C(Cc1c(F)cccc1Cl)Nc1ccon1,inactive: > 76.9 µM
9,O=C(c1noc2c1CCc1ccccc1-2)N1CCOCC1,inactive: > 76.9 µM
10,CC(C)(C)NC(=O)c1ccc(COCC(F)(F)F)o1,inactive: > 76.9 µM
11,COc1ccccc1NC(=O)c1ccccc1NS(=O)(=O)N1CCCC1,inactive: > 76.9 µM
12,CCOC(=O)Nc1nnc(-c2ccc(OC)c(OC)c2)s1,inactive: > 76.9 µM
13,CCc1ccc2[nH]c(=O)c(C(c3nnnn3CCOC)N3CCN(c4ccc(F)cc4)CC3)cc2c1 (centres undefined),inactive: > 76.9 µM
14,COc1cc(-c2nnc(SCC(=O)c3cc(C)n(CC4CCCO4)c3C)o2)cc(OC)c1OC (centres undefined),active: 13.2 µM
15,CCOc1cc(C2NC(=O)NC(C)=C2C(=O)OCc2ccccc2)ccc1O (centres undefined),inactive: > 76.9 µM
16,CC1CCc2cc(F)ccc2N1C(=O)CN1C(=O)c2ccccc2C1=O (centres undefined),inactive: > 76.9 µM
17,CC(C(=O)Nc1cc(C(F)(F)F)ccc1N1CCOCC1)N1C(=O)C2CC=CCC2C1=O (centres undefined),inactive: > 76.9 µM
18,O=C(Cn1c(-c2ccccc2)noc1=O)NCc1ccccc1,inactive: > 76.9 µM
19,O=C(c1cc(S(=O)(=O)N2CCOCC2)c(Cl)cc1Cl)N1CCCCC1,inactive: > 76.9 µM
20,Cn1nnnc1CCOCCc1nnnn1C,inactive: > 76.9 µM

row,SMILES,Potency
1,CC(=O)NC(Cc1ccccc1)C(=O)NC1CCN(C(=O)c2cnccn2)CC1 (centres undefined),inactive: > 76.9 µM
2,COc1ccc2[nH]c3c(NCCN(C(C)C)C(C)C)ncnc3c2c1,inactive: > 76.9 µM
3,COc1ccc(S(=O)(=O)Nc2cc(C)cc(C)n2)c2ccccc12,inactive: > 76.9 µM
4,COc1ccc(-c2cc(C(N)=O)nc(N3CCCCCC3)n2)cc1,inactive: > 76.9 µM
5,COC(=O)CSc1nnc(-c2cccc(NC(=O)c3ccc(C)cc3)c2)n1C,inactive: > 76.9 µM
6,Cc1sc2ncnc(SCC#N)c2c1C,inactive: > 76.9 µM
7,CCCC(=O)N1c2ccccc2[C@@H](N(C(C)=O)c2ccccc2)C[C@H]1C,inactive: > 76.9 µM
8,CCOC(=O)N1CCN(c2c(-c3ccc(C)c(C)c3)c(=O)c2=O)CC1,inactive: > 76.9 µM
9,Cc1csc(NC(=O)CCN2C(=O)c3ccccc3S2(=O)=O)n1,inactive: > 76.9 µM
10,O=c1c(=O)n(O)c2ccccc2n1O,inactive: > 76.9 µM
11,COc1ccc(NC(=O)CSc2nnc(-c3ccccc3)n2Cc2ccco2)c(OC)c1,inactive: > 76.9 µM
12,O=C(c1cccn2c(=O)c3ccccc3nc12)N1CCN(c2ccccn2)CC1,inactive: > 76.9 µM
13,COC(=O)CN(c1ccc(C)cc1)S(=O)(=O)c1ccc2c(c1)n(C)c(=O)c(=O)n2C,inactive: > 76.9 µM
14,CCCC(=O)NC1C2CC3CC(C2)CC1C3 (centres undefined),inactive: > 76.9 µM
15,COc1ccccc1CN1C(=O)C2CC=CCC2C1=O (centres undefined),inactive: > 76.9 µM
16,CCc1nnc(NC(=O)CSc2nnc(-c3ccoc3C)n2CC(C)C)s1,inactive: > 76.9 µM
17,CN(C(=O)c1ccncc1)C1CC(C)(C)N(O)C(C)(C)C1,inactive: > 76.9 µM
18,O=C(Nc1ccccc1F)c1cc(S(=O)(=O)N2CCCCC2)cs1,inactive: > 76.9 µM
19,Cc1cccc(C)c1N(CC(=O)N1CCN(C)CC1)S(C)(=O)=O,inactive: > 76.9 µM
